Assay results from patent US7335484B2, “Retinoid metabolizing protein” (Queen's University at Kingston, priority 1996, dated 2008).
Like-named read-outs stand apart in the source and are kept apart here.

Assays:
[1] = test system: P450RAI message in MCF7 cells; assay: Inhibition of P450RAI induction by 4-HPR, northern blot in MCF7 cells; format: cell-based, human; conditions: 1 μM RA, 12 hours of incubation
Method: Experiments to determine the effect of 4-HPR on the induction of P450RAI were thus carried out. FIG. 17 illustrates the ability of the synthetic retinoid, 4-HPR to inhibit the induction of P450RAI by RA. MCF7 cells were grown in culture in minimal essential medium (MEM) (Gibco) supplemented with 10% fetal calf serum, insulin (0.01 mg/mL), MEM non-essential amino acids (as directed by the manufacturer—Gibco), sodium pyruvate (500 nM), L-glutamine (2 mM) gentamycin (10 μg/mL), penicillin (5 μg/mL), streptomycin (5 μg/mL), and fungizone (200 ng/mL). MCF7 cells cultured in parallel were treated for 12 hours with: 10 μM 4HPR; 1 μM 4HPR; 1 μM RA; 1 μM RA and 10 μM 4-HPR; or 1 μM RA and 1 μM 4-HPR. At the end of the 12 hour treatment, total RNA was extracted from the cells using TRIzol reagent (as outlined by the manufacturer—Gibco). P450RAI message in the total RNA preparations was analyzed by northern blot hybridization. The blot was reprobed with a probe corresponding to the GAPDH cDNA to control for equivalent loading of RNA in each lane of the blot.

[2] = test system: P450RAI mRNA in MCF7 cells; conditions: for P450RAI message level: 1 μM all-trans retinoic acid
RAR-γ = biological target: T1, RAR-γ (Homo sapiens, UniProt P13631); conditions: cited from earlier work
T1 sequence (P13631 1-454): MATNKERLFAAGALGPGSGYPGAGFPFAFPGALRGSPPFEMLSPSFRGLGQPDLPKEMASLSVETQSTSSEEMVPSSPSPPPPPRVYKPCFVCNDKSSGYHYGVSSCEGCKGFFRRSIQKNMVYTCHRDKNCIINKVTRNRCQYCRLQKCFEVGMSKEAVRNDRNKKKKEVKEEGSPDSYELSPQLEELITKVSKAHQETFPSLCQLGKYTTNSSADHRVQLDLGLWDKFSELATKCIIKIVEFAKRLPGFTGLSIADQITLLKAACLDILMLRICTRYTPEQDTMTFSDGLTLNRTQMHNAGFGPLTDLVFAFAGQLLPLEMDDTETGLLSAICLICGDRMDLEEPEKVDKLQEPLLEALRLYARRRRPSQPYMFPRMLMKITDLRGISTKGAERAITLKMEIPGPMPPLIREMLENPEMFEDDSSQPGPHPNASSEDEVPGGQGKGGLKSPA

[3] = test system: cellular retinoic acid binding protein (CRABP); conditions: cited from earlier work
[4] = biological target: T2, retinoic acid receptor-β (RAR-β) (Homo sapiens, UniProt P10826); conditions: cited from earlier work
T2 sequence (P10826 1-455): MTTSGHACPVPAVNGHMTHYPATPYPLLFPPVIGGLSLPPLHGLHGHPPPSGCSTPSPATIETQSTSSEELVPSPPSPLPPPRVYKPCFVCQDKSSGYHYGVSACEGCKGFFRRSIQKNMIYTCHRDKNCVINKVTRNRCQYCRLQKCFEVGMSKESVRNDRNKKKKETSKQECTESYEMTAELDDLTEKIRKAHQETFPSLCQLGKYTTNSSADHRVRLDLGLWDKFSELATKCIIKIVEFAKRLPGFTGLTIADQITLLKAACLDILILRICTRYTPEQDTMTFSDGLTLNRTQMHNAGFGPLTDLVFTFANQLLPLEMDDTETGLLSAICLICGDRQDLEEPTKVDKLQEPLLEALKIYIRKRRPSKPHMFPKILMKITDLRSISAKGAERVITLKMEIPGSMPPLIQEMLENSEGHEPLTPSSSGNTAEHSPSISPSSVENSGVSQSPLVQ

[5] = in vivo; cited from earlier work

In the case of `CC1=C(/C=C/C(C)=C/C=C/C(C)=C/C(=O)O)C(C)(C)CCC1` [RA, all-trans retinoic acid], the “induction of P450RAI message” value [1] is reported as “marked induction of P450RAI message”, the “P450RAI message level between 24 and 48 hours” value [2] is reported as “declined sharply” and the P450RAI message level ([2]; after 3 hours) is reported as “high levels of P450RAI message”. The P450RAI message level ([2]; following 12 hours of exposure) was “the message declines sharply”.

For `CC1(C)CCC(C)(C)c2cc(C(=O)Nc3ccc(C(=O)O)cc3)ccc21` [Am580], the “P450RAI message level between 24 and 48 hours” value [2] was “remains high”, the “metabolism in MCF7 cells, concluded from persistent P450RAI message” value [2] was “resilient to metabolism” and the “induction of P450RAI message” value ([2]; compared with retinoic acid) was “levels comparable to those observed following treatment with retinoic acid”.

In the case of `CC1=C(/C=C/C(C)=C/C=C/C(C)=C/C(=O)O)C(C)(C)CCC1=O` [4-oxo-RA, 4-oxo-retinoic acid], the “binding to RAR-γ” value (RAR-γ) is given as “poorly”, the “binding affinity to CRABP” value [3] is given as “affinity slightly lower than that of all-trans RA” and the “binding affinity to RAR-β” value [4] is given as “affinity comparable to all-trans RA”.

In the case of `CC(=O)N1CCN(c2ccc(OCC3COC(Cn4ccnc4)(c4ccc(Cl)cc4Cl)O3)cc2)CC1` (centres unmarked) [ketoconazole], the “effect on RA pharmacokinetics” value [5] is listed as “shown to modulate RA pharmacokinetics in vivo”.
